Laboratory results: PubChem BioAssay AID624296 (National Center for Advancing Translational Sciences (NCATS), 2012)
Where “and” joins values, the source holds several entries; their conditions need not be identical. Equal values may be shown once. About 9,900 (2.8%) of roughly 350,000 compounds were called active. Inconclusive means that the source gave no clear call. Such entries were picked first, then a sample of the others. Calls follow the shape of the dose curve; as a rule, active = well fitted activation curve with a large enough effect; inconclusive = small, poorly fitted or top-dose-only effect; inactive = no such curve, though single readings can be large or run the other way. Potencies beside an inconclusive call are fits to weak or partial responses and may not hold up.

Experiment: A quantitative high throughput screen for small molecules that induce DNA re-replication in MCF 10a normal breast cells. Also: nearly all actives have a fitted effect of over 50% in size.
Details: MCF 10A DNA re-replication, Hoechst nuclear intensity, 48 h; series mostly up to 46.1 µM
Potency is read from the fitted curve at half-maximal effect; tags tell the direction and shape of the fitted curve.

| Compound | Potency |
| --- | --- |
| CCN(c1ccccc1)S(=O)(=O)c1ccc(C(=O)Nc2cccc(NC(C)=O)c2)cc1 | inactive |
| Cc1cc(C)c2c3c(sc2n1)C(c1cccc(F)c1)C(C#N)=C(N)O3 (centres undefined) | active: 8.2 µM |
| CC(C)C(=O)NC(=S)Nc1ccc(S(=O)(=O)NC(C)(C)C)cc1 | inconclusive: 3.66 µM [activator, single point] |
| Cc1ccc(S(=O)(=O)N2c3ccccc3OCC2c2ccccc2)cc1 (centres undefined) | active: 16.4 µM |
| CCN(CC)Cc1c(O)ccc2c1O/C(=C\C=C\c1ccccc1)C2=O | inconclusive: 29.1 µM [activator, single point] |
| O=C(Nc1cccc(O)c1)c1ccc(NC(=O)c2cccs2)cc1 | inconclusive: 23.1 µM [activator, single point] |
| CC(=O)OCC(=O)C1CCC2C3CCC4=CC(=O)C=CC4(C)C3CCC12C (centres undefined) | inactive |
| CC1CCN(C(=O)c2ncn(Cc3ccccc3)c2C(=O)N2CCC(C)CC2)CC1 | inactive |
| CCN(CC)S(=O)(=O)c1cccc(-c2n[nH]c(=S)n2CC(C)C)c1 | inactive |
| CN(C)/C=C/C(=O)c1ccc(Cl)cc1 | active: 18.4 µM |
| Cc1cccc(NCCC#N)c1 | inconclusive: 3.26 µM [activator, single point] |
| Cc1cccc(C)c1Nc1c(-c2ccc(N3CCOCC3)cc2)nc2cnccn12 | active: 23.1 µM |
| O=c1c2ccccc2[nH]c(=S)n1CCCN1CCN(c2ccccc2F)CC1 | inconclusive: 0.461 µM [activator, full curve, poor fit] |
| CCOC(=O)N1CCN(C(=S)Nc2cc(S(=O)(=O)N3CCOCC3)ccc2Cl)CC1 | inconclusive: 29.1 µM [activator, single point] |
| CCCCCCc1cc2cc(S(=O)(=O)c3ccc(C)cc3)c(=O)oc2cc1O | inconclusive: 0.731 µM [activator, full curve, poor fit] |
| CC1CCCN(c2nc3c(c(=O)n(C)c(=O)n3C)n2CCSc2nc3ccccc3s2)C1 (centres undefined) | inconclusive: 29.1 µM [activator, single point] |
| Cc1cccc(C(=O)Nc2sc(-c3ccccc3)cc2C(=O)O)c1 | inconclusive: 16.4 µM [activator, single point] |
| CCCOc1ccc(-c2c(C(=O)N/N=C/c3cccs3)nnn2-c2nonc2N)cc1 | inactive |
| C=CCOc1ccc(C2NC(=O)c3ccccc3O2)cc1 (centres undefined) | inactive |
| COc1ccc(Cc2nc(=S)[nH][nH]2)cc1Br | inactive |
| Cc1oc2cc([N+](=O)[O-])c(O)c([N+](=O)[O-])c2c1C(=O)c1ccc(Br)cc1 | inconclusive: 29.1 µM [activator, single point] |
| O=C(NC(=S)NCCN1CCOCC1)c1ccc(F)cc1 | inconclusive: 29.1 µM [activator, single point] |
| Nc1nc(NCc2ccco2)nc(Nc2ccccc2)c1[N+](=O)[O-] | inactive |

| Compound | Potency |
| --- | --- |
| O=C(N/N=C/c1ccc(OCc2ccccc2)cc1)c1ccco1 | inactive |
| COC(=O)c1ccc(OCC2c3cc(OC)c(OC)cc3CCN2C(=O)c2ccco2)cc1 (centres undefined) | inconclusive: 20.6 µM [activator, single point] |
| CCn1c(SC(C)C(=O)NC2CCCc3ccccc32)nnc1-c1cccs1 (centres undefined) | inconclusive: 0.158 µM [activator, full curve, poor fit] |
| O=C(NCCS(=O)(=O)N1CCN(c2ccccc2F)CC1)c1ccc(F)c(F)c1 | inactive |
| COc1cccc(N(C(=O)Cn2nnc(-c3cccs3)n2)C(C(=O)NC(C)C)c2ccc(C)o2)c1 (centres undefined) | inconclusive: 29.1 µM [activator, single point] |
| CCN(CC)C(=O)CSc1nnc(-c2ccccc2)n1N | inconclusive: 0.0073 µM [activator, partial curve, poor fit] |
| Cc1csc(NC(=O)/C=C/c2ccc(C)o2)n1 | inactive |
| COc1ccc(/C=C/C(=O)Nc2cccc(S(=O)(=O)NC3=NCCCCC3)c2)cc1OC | inconclusive: 20.6 µM [activator, partial curve, poor fit] |
| CCCc1cc(=O)[nH]c(SCC(=O)Nc2cc(S(=O)(=O)N3CCCCC3)ccc2Cl)n1 | inconclusive: 4.11 µM [activator, full curve, poor fit] |
| COc1ccc(C)c(-n2c(=O)n(Cc3ccccc3)c(=O)c3[nH]cnc32)c1 | inactive |
| CCCCn1c(N)c(N(CCOC)C(=O)COC(=O)COc2cc(C)ccc2Cl)c(=O)[nH]c1=O | inactive |
| CC12CCC(C(=O)N3CCN(C(c4ccccc4)c4ccccc4)CC3)(OC1=O)C2(C)C (centres undefined) | inconclusive: 4.61 µM [activator, full curve, poor fit] |
| CN(C(=O)CO/N=C/c1ccc(Cl)cc1)c1ccccc1 | inactive |
| O=[N+]([O-])c1ccc(N/N=C/c2cccc(O)c2O)cc1 | active: 23.1 µM |
| Oc1ccc(/C=N/Nc2nc(-c3ccccc3F)nc3ccccc23)c(O)c1 | inconclusive: 18.4 µM [activator, single point] |
| COc1ccc(NC(=O)CCSc2ccc(F)cc2)cc1 | inconclusive: 25.9 µM [activator, partial curve, poor fit] |
| O=C(Oc1c(-c2ccccc2)c(=O)n2c3c(cccc13)CC2)c1ccccc1 | inconclusive: 29.1 µM [activator, single point] |
| COc1ccc(/C=N/NC(=O)c2c(Br)cnn2C)c2ccccc12 | inconclusive: 32.6 µM [activator, partial curve, poor fit] |
| Cc1nc(SCC(=O)N(C)C2CCS(=O)(=O)C2)c2ccccc2n1 (centres undefined) | inconclusive: 18.4 µM [activator, single point] |
| CC1CCC(O)C/C1=C\C=C1/CCCC2(C)C1CCC2C(C)/C=C/C(C)C(C)C (centres undefined) | active: 21.1 µM |
| CN(C)S(=O)(=O)N(CC(=O)N1CCN(c2ccccc2F)CC1)c1ccccc1 | inactive |
| O=C1/C(=C/c2ccc(N3CCOCC3)o2)SC(=Nc2ccccc2)N1CCc1c[nH]c2ccccc12 | inconclusive: 1.84 µM [activator, full curve, poor fit] |
| COc1ccc(-n2ncc3c(N4CCc5ccccc54)ncnc32)cc1 | inconclusive: 25.9 µM [activator, partial curve, poor fit] |

| Compound | Potency |
| --- | --- |
| COC(=O)Cn1cc(/C=C(/C#N)C(=O)N2CCOCC2)c2ccccc21 | inactive |
| O=C(/C=C/c1cccc([N+](=O)[O-])c1)N1CCN(S(=O)(=O)c2cccs2)CC1 | inconclusive: 0.651 µM [activator, partial curve, poor fit] |
| CCOC(=O)c1c(C)nc(C)c(C(=O)OCC)c1-c1cccnc1 | inactive |
| Brc1ccccc1-c1nnc(CSc2nncn2-c2ccccc2)o1 | inactive |
| COc1ccc(NC(C)=O)cc1NC(=O)CSc1nc2ncccc2[nH]1 | inconclusive: 29.1 µM [activator, single point] |
| CC(NC(=O)CN1CCC(C(N)=O)CC1)c1ccccc1 (centres undefined) | inconclusive: 6.51 µM [activator, partial curve, poor fit] |
| Cc1cc(NC(=O)c2ccco2)ncc1NC(=O)CCc1ccccc1 | inconclusive: 0.184 µM [activator, full curve, poor fit] |
| O=c1[nH]cnc(O)c1C(c1ccc([N+](=O)[O-])cc1)c1c(O)nc[nH]c1=O | inactive |
| COc1cc(OC)c(N2CC(C(=O)Nc3cc(Cl)ccc3N3CCOCC3)CC2=O)cc1Cl (centres undefined) | active: 18.4 µM |
| CCOC(=O)/C=C1/N(C)c2ccccc2C1(C)C | inactive |
| O=C(N/N=C/c1ccc(F)cc1)c1cc(-c2ccccn2)nc2ccccc12 | inconclusive: 29.1 µM [activator, single point] |
| COc1ccc2oc(-c3ccccc3[N+](=O)[O-])cc(=O)c2c1 | active: 6.51 µM |
| CCC[C@H]1CCCC/C=C\CCCC(=O)OCCN1C(=O)OC(C)(C)C | inconclusive: 29.1 µM [activator, single point] |
| CCCc1cc(C(=O)Cc2nc3ccccc3s2)c(O)cc1O | inconclusive: 25.1 µM [activator, single point] |
| N/C(Cc1ccc(Cl)cc1)=N\OC(=O)Cc1ccc([N+](=O)[O-])cc1 | inconclusive: 23.1 µM [activator, single point] |
| CCc1cc2cc(C)cc(C)c2nc1SCC(=O)N1CCN(C(=O)c2ccco2)CC1 | inconclusive: 23.1 µM [activator, single point] |
| N=C1c2c(cc(=O)n3c2[nH]c2ccccc23)CN1CCN1CCOCC1 | inconclusive: 20.6 µM [activator, single point] |
| CC(Cc1ccc(O)c(O)c1)C(C)Cc1ccc(O)c(O)c1 (centres undefined) | inactive and inconclusive: 6.51 µM [activator, single point] |
| COc1cc(CNc2cccc(F)c2)cc(Br)c1O | inconclusive: 29.1 µM [activator, single point] |
| Cc1c(C(=O)O)sc2nc(SCC(=O)Nc3ccc(S(=O)(=O)NC(C)(C)C)cc3)[nH]c(=O)c12 | inconclusive: 0.562 µM [activator, full curve, poor fit] |
| CC(C)C1C(=O)NC(=S)N1S(=O)(=O)c1ccc(C(C)(C)C)cc1 (centres undefined) | inconclusive: 11.6 µM [activator, partial curve, poor fit] |
| CC(C)(C)N(Cc1ccccc1)C(=O)c1ccc2c(c1)OCCO2 | inconclusive: 0.651 µM [activator, single point] |
| CC1CCN(C(=O)C2CCN(S(=O)(=O)c3cc(Cl)ccc3Cl)CC2)CC1 | inactive |
